The labels stand for the following.
B1: tRNA (parent)
chain: CUCUCGGUAGCCAAGUUGGUUUAAGGCGCAAGACUUUAAUUUAUCACUACGAAAUCUUGAGAUCGGGCGUUCGACUCGCCCCCGGGAGAUUUUUUCCUCGAGCAA

Variants at the floor of the assay are shown more often than the library holds them.

Variants of B1 are the subject of this data set. Description: nonsense suppression (GFP-seq) (ratio to wild type); higher = more function; SUP4oc tRNA, yeast GFP reporter sort-seq. The method, boiled down:
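Yeast were grown in raffinose/galactose medium with 80 mg/L adenine, each strain bearing a genome-integrated ochre-suppressor tRNA variant from a ~3% random-mutation library, a galactose-driven GFP ochre reporter, and RFP. After sorting into GFP/RFP bins, every bin was sequenced on an Illumina platform at phred ≥30. The GFPSEQ value, a measure of nonsense suppression, is the weighted bin median GFP/RFP relative to the unmutated parent tRNA, using each variant's estimated cell share per bin as the weight. Only variants with ≥100 reads and ≥30 cells were included.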
Consider CUCUCGGUAGCCAAGUUGGUUGAAGGCGCAAGACUUUAAUUUAUCACUACGAACUCUUGAGAUCGCGCGUUCGACUCGCCCCCGGGUGAUUUUUUCCUCGAGCAA [U22G A54C G66C A87U], for which the nonsense suppression is at most 0.026. Turning to CUCUCGGUAGCCAAGUUGGAUUAAGGGGCAAGACUUUAAUUUAUCACUACGAAAUCUUGAGCCAGGGCGUUCGACUCGCCCCCGGGAGAUUUUUUCCUCGAGCAA [U20A C27G A62C U63C C64A], the nonsense suppression is at most 0.026. Then CUCUUGGUCGCCAAGUUGGUUUAAGUCGCAAGACUUUAAUUUAUCACUACGAAAUCUUGAGAUCGGGCGUUCGACUCGCCCCCGGGAGAUUUUUUCCUCGAGCAA [C5U A9C G26U], with at most 0.026; and CUCUCCGUAGCCAAGUUGGUGUAAGGGGCAAGACUUUAAUUUAUCACUACGAAUUCUUGAGAUCGGGCGUUCGACUCGCCCCCGCGAGAUUUUUUCCUCGAGCAA [G6C U21G C27G A54U G85C], with at most 0.026; and CUCUCGGUAGCCAAGUUGGUUUAAGGCGCAAGACUUUAAUUUAUCACUACGAAAUCUUGAGAUCGGGCGAUCGACUCGCCCCCAGGAGAUUUUUUCCUCGAGCAA [U70A G84A], with at most 0.026. Then CUCUCGGUACCCAAGUUGGUUUAAGGCGCAACACUUUAAUUUAUCACUACGAAAUCUUGAGAUGGGGCGUUCGACUCGCCCCCGGGAGAUUUUUUCCUCGAGCAA [G10C G32C C64G], with at most 0.026; and CUCUCGAUAGCCAAGUUGGUUUAAGGCGCAAGAUUUUAAUUUAUCACUACGAAAUCUUGAGAUCGGGCGUUCGACUCUCCCCCGGGAGAUUUUUUCCUCGAGCAA [G7A C34U G78U], with at most 0.026. Then CUCUCGGUAGCCAAGUUGGUUUAAGGCGCGAGACUUUAAUUUAUCACUACGAAAUCUUGAGAUCGGGCGUUCGACUCGCCCCCGGGAGCUUUUUUCCUCGAGCAA [A30G A89C], with 0.0603. With CUCCCGGUCGCCAAGUUGGUUUAAGGCGCAAGACUUUAAUUUAUCACUACGAAAUCUUGAGAUCCGGCGUUCGACUCGCCCUCGGGAGAUUUUUUCCUCGAGCAA [U4C A9C G65C C82U], the nonsense suppression is at most 0.026. In the case of CUCUCGGUACCCAAAUUGGUUUAAGGCGAAAGACUUUAAUUUAUCACUACGAAAUCUUGAGAUCGGGCGUUCGACUCGCCCCCGGGAGAUUUUUUCCUCGAGCAA [G10C G15A C29A] it was at most 0.026; in that of AUCUCGGUCGCCAAGUUGGUUUAAGGCGCAAGACUUUAAUUUAUCACUACGAAAUCUUGUGAUCGGGCGUUCGACUCGCCCCCGGGAGAUUUUUUCCUCGAGCAA [C1A A9C A60U], at most 0.026. Turning to CUCUCGGUAGCCAAGUUGGUUUAAGUCGCAAGACCUUAAUUUAUCACUACGAAAUCUUUAGAUCGGGCGUUCGACUCGCCCCCGGGAGAUUUUUUCCUCGAGCAA [G26U U35C G59U], the nonsense suppression is at most 0.026. For the variant CUCUCGGCCGCCAAGUUGGUUUAAGGAGCAAGACUUUAAUUUAUCACUACGAAAUCUUGAGAUCGGGCGUUCGACUCGCCCCCGGGAGCUUUUUUCCUCGAGCAA [U8C A9C C27A A89C], the nonsense suppression is at most 0.026. As for CUCUCGGUAGCCAAGUUGGUUUAAGGCGCAAGACGUUAAUUUAUCACUACGAAAUCUUGAGAUCGCGCGUUCGAGUAGCCCCCGGGAGAUUUUUUCCUCGAGCAA [U35G G66C C75G C77A], the nonsense suppression is at most 0.026.

For the variant CUCUCGGUAGCCAAGUUGGUUUAAGGCGCAAGACUUUAAUUUAUCACUACGAAAUCUUGAGAUCGGGCAUCCGACUCGCCCCCGGGAGAUUUUUUCCUCGAGCAA [G69A U71C], the nonsense suppression was at most 0.026. In the case of CUAUCGGUAGCCAAGUUGGUUUAAGGCGUAAGACUUUAAUUUAUCACUACGAAAUCUUGAGAUCGGGCGUUCGACUCGCCCCCGGGAGUUUUUUUCCUCGAGCAA [C3A C29U A89U] it was at most 0.026. CUCUCGGUAGCCAAGUUGGUUUAACACGCGUGACUUUAAUUUAUCACUACGAAAUCUUGAGAUCGGGCGUUCGACUUGCCCCCGGGAGAUUUUUUCCUCGAGCAA [G25C G26A A30G A31U C77U]: the nonsense suppression is at most 0.026. Then CUCUCGGUAGCCAAGUUGGUUUAAGGUGCAGGACUUUAAUUUAUCACUACGAAAUGUUGAGCUCGGGUGUUCGACUCGCCCCCGGGAGAUUUUUUCCUCGAGCAA [C27U A31G C56G A62C C68U], with at most 0.026; and CUUUCGGUAGCCAAGUUGGAUUAAGGCGCAAGAUUUUAAUUUAUCACUACGAAAUCUUGAGAUCGGGCGUUCAACUCGCCCCCGGGAGAUUUUUUCCUCGAGCAA [C3U U20A C34U G73A], with at most 0.026. As to CUCUCGGUAGCCAAGUUGGUUUAAGACGCAAGACUUUAAUUUAUCACUACGAAAUCUUGAGAUCGGGCGCUCGACUCGCCCCCGGGAGAUUUUUUCCUCGAGCAA [G26A U70C], the nonsense suppression was at most 0.026. With CUCUCGGUAGCCAAGUUGGUUUAAGGUGCAAGACUUUAAUUUAUCACUACGAAAUCUUGAGAUCGGGCGUUCGACUCGCCCCCUGGAGAUUUUUUCCUCGAGCAA [C27U G84U], the nonsense suppression was at most 0.026. In the case of AUCUCGGUAGCCUAGUUGGUUUAAGGCGCAAGACUUUAAUUUAUCACUACGAAAUCUUGAGAUCGGGCGUUCGACUCGCCCCCGGGAGAUUUUUUCCUCGAGCAA [C1A A13U] it was at most 0.026; in that of CUAUCGGUAGCCAAGUUGGUUUAAGGUGCAAGACUUUAAUUUAUCACUACGAAAUCUUGAGAUCGGGCGUUCGACUCGCCCCCGGGAGAUUUUUUCCUCGAGCAA [C3A C27U], at most 0.026. Consider CUCUGAGUAGCCAAGUUGGUUUAAGGCGCAAGUCGUUAAUUUAUCACUACGAAAUCUUGAGAUCGGGCGCUCGACUCGCCCCCGGGAGAUUUUUUCCUCGAGCAA [C5G G6A A33U U35G U70C], for which the nonsense suppression is at most 0.026. In the case of CUCUCGGUAGCCAAGUUGGGUGAAGGCGCAAGACUUUAAUUUAUCACUACGAAAUCUUGAGAUCGGGCGUUCGACUCGCCCCCGGGAGAUUUUUUCCUCGAGCAA [U20G U22G] it was 1.06. In the case of CUCUCGUUAGCCAAGUUGGUUUAAGGCGCAAGAUUUUAAUUUAUCACUACGAAAUCUUGAGAUCGGGCGUACGACUCGCCCCCGGGAGAUUUUUUCCUCGAGCAA [G7U C34U U71A] it was at most 0.026; in that of CUUUCGGUAGCCAAGUUGGUUUAAUGCGCAAGACUUUAAUUUAUCACUACGAAAUCUUGAGAUCGUGCGUUCGACUCGCCCCCGGGAGAUUUUUUCCUCGAGCAA [C3U G25U G66U], at most 0.026.
